Experiment [1] addresses human E6AP (yeast two-hybrid bait) (human) (UniProt Q05086). As to the kind of experiment: two-hybrid; screen with human E6AP as bait; survival on SD-4 (deficient in Ura, His, Leu and Trp) and X-Gal staining; hits identified by Sanger sequencing; MCM6 validated in yeast cells.
The target of experiment [2] is GST-E6AP (human) (UniProt Q05086). As to the kind of experiment: pull-down; GST pull-down: 10 μg purified His6-tagged protein and 10 μg GST-tagged protein with Glutathione Sepharose 4B, 4 °C overnight; 20 mM Tris-Cl, 100 mM NaCl, 5 mM MgCl2, 1 mM EDTA, 1 mM DTT, 0.5% NP-40, 10 mg/mL BSA, pH 8.0; five washes; blots with anti-GST and anti-His; both purified.
For experiment [3] the target is unchanged. The experiment is described as above. This is another data set of the same source.
The target of experiment [4] is GST-E6AP (1-280), N-terminal region of E6AP (human) (UniProt Q05086). The experiment is described as above.

The chains behind the UniProt entries cited, without tags or fusion partners. Where a name states a change or a piece, a line headed by the entry shows the natural chain unless it says otherwise. Residues count along the entry.
UniProt Q05086: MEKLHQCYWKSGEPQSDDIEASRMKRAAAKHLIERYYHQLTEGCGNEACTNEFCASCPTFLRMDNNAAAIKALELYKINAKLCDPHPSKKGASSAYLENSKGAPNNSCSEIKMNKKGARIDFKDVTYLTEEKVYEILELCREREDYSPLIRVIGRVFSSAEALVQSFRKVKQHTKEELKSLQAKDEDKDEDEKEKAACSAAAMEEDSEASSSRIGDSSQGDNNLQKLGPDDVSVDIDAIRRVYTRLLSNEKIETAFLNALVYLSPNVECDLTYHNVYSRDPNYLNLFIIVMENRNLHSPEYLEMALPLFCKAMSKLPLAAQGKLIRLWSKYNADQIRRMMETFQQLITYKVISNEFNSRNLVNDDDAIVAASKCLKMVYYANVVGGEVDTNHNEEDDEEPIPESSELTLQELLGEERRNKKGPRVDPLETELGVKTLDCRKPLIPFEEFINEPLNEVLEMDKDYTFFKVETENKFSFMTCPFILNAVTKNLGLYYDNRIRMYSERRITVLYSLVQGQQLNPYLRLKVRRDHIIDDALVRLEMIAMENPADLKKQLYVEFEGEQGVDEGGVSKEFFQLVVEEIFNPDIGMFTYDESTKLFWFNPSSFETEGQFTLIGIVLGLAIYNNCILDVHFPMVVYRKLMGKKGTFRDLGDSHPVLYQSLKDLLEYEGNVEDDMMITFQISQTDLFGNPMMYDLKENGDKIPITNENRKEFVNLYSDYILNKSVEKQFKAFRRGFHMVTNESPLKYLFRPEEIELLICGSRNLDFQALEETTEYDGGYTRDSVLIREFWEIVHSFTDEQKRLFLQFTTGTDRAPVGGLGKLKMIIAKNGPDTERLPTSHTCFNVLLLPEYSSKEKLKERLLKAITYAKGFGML
GST-E6AP (1-280), N-terminal region of E6AP: residues 1-280 of Q05086
UniProt P05120: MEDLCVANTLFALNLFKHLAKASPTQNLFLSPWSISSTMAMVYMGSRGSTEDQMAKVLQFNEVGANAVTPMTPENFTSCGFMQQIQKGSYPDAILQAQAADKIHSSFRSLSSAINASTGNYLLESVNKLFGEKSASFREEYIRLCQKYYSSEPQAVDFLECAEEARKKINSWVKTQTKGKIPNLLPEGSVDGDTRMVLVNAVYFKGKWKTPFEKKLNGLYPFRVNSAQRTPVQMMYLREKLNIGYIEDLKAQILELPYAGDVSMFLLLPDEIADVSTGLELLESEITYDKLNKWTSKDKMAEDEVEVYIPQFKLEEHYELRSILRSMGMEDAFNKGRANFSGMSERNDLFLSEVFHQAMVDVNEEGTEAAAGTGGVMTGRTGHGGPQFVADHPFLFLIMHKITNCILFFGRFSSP
UniProt P49736: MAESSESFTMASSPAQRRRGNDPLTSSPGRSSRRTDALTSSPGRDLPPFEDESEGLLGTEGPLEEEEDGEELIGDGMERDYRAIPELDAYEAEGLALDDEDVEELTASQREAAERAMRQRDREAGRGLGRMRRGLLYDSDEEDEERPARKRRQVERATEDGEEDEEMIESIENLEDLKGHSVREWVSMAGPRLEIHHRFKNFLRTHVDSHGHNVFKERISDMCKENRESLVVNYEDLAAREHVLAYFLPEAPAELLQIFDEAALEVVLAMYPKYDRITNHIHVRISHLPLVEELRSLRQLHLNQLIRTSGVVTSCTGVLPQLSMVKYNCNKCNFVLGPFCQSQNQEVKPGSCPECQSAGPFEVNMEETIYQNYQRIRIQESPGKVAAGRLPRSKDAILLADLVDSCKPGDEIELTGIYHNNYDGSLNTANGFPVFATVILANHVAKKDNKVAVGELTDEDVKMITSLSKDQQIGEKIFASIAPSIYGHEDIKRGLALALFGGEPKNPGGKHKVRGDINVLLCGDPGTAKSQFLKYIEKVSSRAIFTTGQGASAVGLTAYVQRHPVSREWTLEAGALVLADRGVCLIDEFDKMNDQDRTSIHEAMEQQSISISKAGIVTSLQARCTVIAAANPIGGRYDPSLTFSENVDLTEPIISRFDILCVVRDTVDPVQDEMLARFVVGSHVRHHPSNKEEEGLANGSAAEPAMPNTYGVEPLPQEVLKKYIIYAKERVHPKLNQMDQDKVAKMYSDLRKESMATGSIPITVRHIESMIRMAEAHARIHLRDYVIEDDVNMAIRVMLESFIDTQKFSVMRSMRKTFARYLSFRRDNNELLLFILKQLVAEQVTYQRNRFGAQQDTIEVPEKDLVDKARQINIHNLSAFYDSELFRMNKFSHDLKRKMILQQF

For eleven molecules, binding results are on record in PMC10476561.

Read-outs that look alike come from different tables or passages of the source. Results are given in words; binding and its absence hold for the method and conditions named. Some binding calls cover weakened binding; strength is not graded here. For some assays here: Tags and fused reporters may be left off the sequences shown.

On to “SERPINB2 (yeast two-hybrid prey) (from UniProt P05120 1-415)”, for which, in experiment [1], the binding result was “binds”.

As to His6-MCM2 (from UniProt P49736 1-904), the binding entry in experiment [2] is “binds”.

B1: ALDH1A2 (yeast two-hybrid prey) (protein, UniProt O94788 1-518)
chain: MTSSKIEMPGEVKADPAALMASLHLLPSPTPNLEIKYTKIFINNEWQNSESGRVFPVYNPATGEQVCEVQEADKADIDKAVQAARLAFSLGSVWRRMDASERGRLLDKLADLVERDRAVLATMESLNGGKPFLQAFYVDLQGVIKTFRYYAGWADKIHGMTIPVDGDYFTFTRHEPIGVCGQIIPWNFPLLMFAWKIAPALCCGNTVVIKPAEQTPLSALYMGALIKEAGFPPGVINILPGYGPTAGAAIASHIGIDKIAFTGSTEVGKLIQEAAGRSNLKRVTLELGGKSPNIIFADADLDYAVEQAHQGVFFNQGQCCTAGSRIFVEESIYEEFVRRSVERAKRRVVGSPFDPTTEQGPQIDKKQYNKILELIQSGVAEGAKLECGGKGLGRKGFFIEPTVFSNVTDDMRIAKEEIFGPVQEILRFKTMDEVIERANNSDFGLVAAVFTNDINKALTVSSAMQAGTVWINCYNALNAQSPFGGFKMSGNGREMGEFGLREYSEVKTVTVKIPQKNS
As to B1, the binding entry in experiment [1] was “binds”.

B2: His6-MCM5 (protein, UniProt P33992 1-734)
chain: MSGFDDPGIFYSDSFGGDAQADEGQARKSQLQRRFKEFLRQYRVGTDRTGFTFKYRDELKRHYNLGEYWIEVEMEDLASFDEDLADYLYKQPAEHLQLLEEAAKEVADEVTRPRPSGEEVLQDIQVMLKSDASPSSIRSLKSDMMSHLVKIPGIIIAASAVRAKATRISIQCRSCRNTLTNIAMRPGLEGYALPRKCNTDQAGRPKCPLDPYFIMPDKCKCVDFQTLKLQELPDAVPHGEMPRHMQLYCDRYLCDKVVPGNRVTIMGIYSIKKFGLTTSRGRDRVGVGIRSSYIRVLGIQVDTDGSGRSFAGAVSPQEEEEFRRLAALPNVYEVISKSIAPSIFGGTDMKKAIACLLFGGSRKRLPDGLTRRGDINLLMLGDPGTAKSQLLKFVEKCSPIGVYTSGKGSSAAGLTASVMRDPSSRNFIMEGGAMVLADGGVVCIDEFDKMREDDRVAIHEAMEQQTISIAKAGITTTLNSRCSVLAAANSVFGRWDETKGEDNIDFMPTILSRFDMIFIVKDEHNEERDVMLAKHVITLHVSALTQTQAVEGEIDLAKLKKFIAYCRVKCGPRLSAEAAEKLKNRYIIMRSGARQHERDSDRRSSIPITVRQLEAIVRIAEALSKMKLQPFATEADVEEALRLFQVSTLDAALSGTLSGVEGFTSQEDQEMLSRIEKQLKRRFAIGSQVSEHSIIKDFTKQKYPEHAIHKVLQLMLRRGEIQHRMQRKVLYRLK
On to B2, for which, in experiment [3], the binding result was “no binding (tested: 10 μg of each protein)”.

B3: MCM6 (yeast two-hybrid prey) (protein, UniProt Q14566 1-821)
chain: MDLAAAAEPGAGSQHLEVRDEVAEKCQKLFLDFLEEFQSSDGEIKYLQLAEELIRPERNTLVVSFVDLEQFNQQLSTTIQEEFYRVYPYLCRALKTFVKDRKEIPLAKDFYVAFQDLPTRHKIRELTSSRIGLLTRISGQVVRTHPVHPELVSGTFLCLDCQTVIRDVEQQFKYTQPNICRNPVCANRRRFLLDTNKSRFVDFQKVRIQETQAELPRGSIPRSLEVILRAEAVESAQAGDKCDFTGTLIVVPDVSKLSTPGARAETNSRVSGVDGYETEGIRGLRALGVRDLSYRLVFLACCVAPTNPRFGGKELRDEEQTAESIKNQMTVKEWEKVFEMSQDKNLYHNLCTSLFPTIHGNDEVKRGVLLMLFGGVPKTTGEGTSLRGDINVCIVGDPSTAKSQFLKHVEEFSPRAVYTSGKASSAAGLTAAVVRDEESHEFVIEAGALMLADNGVCCIDEFDKMDVRDQVAIHEAMEQQTISITKAGVKATLNARTSILAAANPISGHYDRSKSLKQNINLSAPIMSRFDLFFILVDECNEVTDYAIARRIVDLHSRIEESIDRVYSLDDIRRYLLFARQFKPKISKESEDFIVEQYKHLRQRDGSGVTKSSWRITVRQLESMIRLSEAMARMHCCDEVQPKHVKEAFRLLNKSIIRVETPDVNLDQEEEIQMEVDEGAGGINGHADSPAPVNGINGYNEDINQESAPKASLRLGFSEYCRISNLIVLHLRKVEEEEDESALKRSELVNWYLKEIESEIDSEEELINKKRIIEKVIHRLTHYDHVLIELTQAGLKGSTEGSESYEEDPYLVVNPNYLLED
For B3, in experiment [1], the binding entry is “binds”.

B4: His6-MCM6 (protein, UniProt Q14566 1-821)
chain: B3 chain
Turning to B4, the binding result in experiment [3] is on record as “binds”.

B5: MSTO1 (yeast two-hybrid prey) (protein, UniProt Q9BUK6 1-570)
chain: MAGGAREVLTLQLGHFAGFVGAHWWNQQDAALGRATDSKEPPGELCPDVLYRTGRTLHGQETYTPRLILMDLKGSLSSLKEEGGLYRDKQLDAAIAWQGKLTTHKEELYPKNPYLQDFLSAEGVLSSDGVWRVKSIPNGKGSSPLPTATTPKPLIPTEASIRVWSDFLRVHLHPRSICMIQKYNHDGEAGRLEAFGQGESVLKEPKYQEELEDRLHFYVEECDYLQGFQILCDLHDGFSGVGAKAAELLQDEYSGRGIITWGLLPGPYHRGEAQRNIYRLLNTAFGLVHLTAHSSLVCPLSLGGSLGLRPEPPVSFPYLHYDATLPFHCSAILATALDTVTVPYRLCSSPVSMVHLADMLSFCGKKVVTAGAIIPFPLAPGQSLPDSLMQFGGATPWTPLSACGEPSGTRCFAQSVVLRGIDRACHTSQLTPGTPPPSALHACTTGEEILAQYLQQQQPGVMSSSHLLLTPCRVAPPYPHLFSSCSPPGMVLDGSPKGAAVESIPVFGALCSSSSLHQTLEALARDLTKLDLRRWASFMDAGVEHDDVAELLQELQSLAQCYQGGDSLVD
Take B5: the binding entry in experiment [1] is given as “binds”.

B6: CRP (yeast two-hybrid prey) (protein, UniProt P02741 1-224)
chain: MEKLLCFLVLTSLSHAFGQTDMSRKAFVFPKESDTSYVSLKAPLTKPLKAFTVCLHFYTELSSTRGYSIFSYATKRQDNEILIFWSKDIGYSFTVGGSEILFEVPEVTVAPVHICTSWESASGIVEFWVDGKPRVRKSLKKGYTVGAEASIILGQEQDSFGGNFEGSQSLVGDIGNVNMWDFVLSPDEINTIYLGGPFSPNVLNWRALKYEVQGEVFTKPQLWP
For the molecule B6, the binding entry in experiment [1] is “binds”.

B7: His6-MCM6 (1-345), N terminus of MCM6 (domain or fragment, UniProt Q14566 1-345)
chain: MDLAAAAEPGAGSQHLEVRDEVAEKCQKLFLDFLEEFQSSDGEIKYLQLAEELIRPERNTLVVSFVDLEQFNQQLSTTIQEEFYRVYPYLCRALKTFVKDRKEIPLAKDFYVAFQDLPTRHKIRELTSSRIGLLTRISGQVVRTHPVHPELVSGTFLCLDCQTVIRDVEQQFKYTQPNICRNPVCANRRRFLLDTNKSRFVDFQKVRIQETQAELPRGSIPRSLEVILRAEAVESAQAGDKCDFTGTLIVVPDVSKLSTPGARAETNSRVSGVDGYETEGIRGLRALGVRDLSYRLVFLACCVAPTNPRFGGKELRDEEQTAESIKNQMTVKEWEKVFEMSQDKN
As to B7, in experiment [4], the binding result is recorded as “binds”.

B8: IL24 (yeast two-hybrid prey) (protein, UniProt Q13007 1-206)
chain: MNFQQRLQSLWTLARPFCPPLLATASQMQMVVLPCLGFTLLLWSQVSGAQGQEFHFGPCQVKGVVPQKLWEAFWAVKDTMQAQDNITSARLLQQEVLQNVSDAESCYLVHTLLEFYLKTVFKNYHNRTVEVRTLKSFSTLANNFVLIVSQLQPSQENEMFSIRDSAHRRFLLFRRAFKQLDVEAALTKALGEVDILLTWMQKFYKL
On to B8, for which the binding result in experiment [1] was “binds”.

B9: His6-MCM3 (protein, UniProt P25205 1-808)
chain: MAGTVVLDDVELREAQRDYLDFLDDEEDQGIYQSKVRELISDNQYRLIVNVNDLRRKNEKRANRLLNNAFEELVAFQRALKDFVASIDATYAKQYEEFYVGLEGSFGSKHVSPRTLTSCFLSCVVCVEGIVTKCSLVRPKVVRSVHYCPATKKTIERRYSDLTTLVAFPSSSVYPTKDEENNPLETEYGLSVYKDHQTITIQEMPEKAPAGQLPRSVDVILDDDLVDKAKPGDRVQVVGTYRCLPGKKGGYTSGTFRTVLIACNVKQMSKDAQPSFSAEDIAKIKKFSKTRSKDIFDQLAKSLAPSIHGHDYVKKAILCLLLGGVERDLENGSHIRGDINILLIGDPSVAKSQLLRYVLCTAPRAIPTTGRGSSGVGLTAAVTTDQETGERRLEAGAMVLADRGVVCIDEFDKMSDMDRTAIHEVMEQGRVTIAKAGIHARLNARCSVLAAANPVYGRYDQYKTPMENIGLQDSLLSRFDLLFIMLDQMDPEQDREISDHVLRMHRYRAPGEQDGDAMPLGSAVDILATDDPNFSQEDQQDTQIYEKHDNLLHGTKKKKEKMVSAAFMKKYIHVAKIIKPVLTQESATYIAEEYSRLRSQDSMSSDTARTSPVTARTLETLIRLATAHAKARMSKTVDLQDAEEAVELVQYAYFKKVLEKEKKRKKRSEDESETEDEEEKSQEDQEQKRKRRKTRQPDAKDGDSYDPYDFSDTEEEMPQVHTPKTADSQETKESQKVELSESRLKAFKVALLDVFREAHAQSIGMNRLTESINRDSEEPFSSVEIQAALSKMQDDNQVMVSEGIIFLI
Consider B9, for which the binding result in experiment [3] is reported as “no binding (tested: 10 μg of each protein)”.
